T1: human PAC1 receptor (human, UniProt P41586 21-468)
T1 sequence: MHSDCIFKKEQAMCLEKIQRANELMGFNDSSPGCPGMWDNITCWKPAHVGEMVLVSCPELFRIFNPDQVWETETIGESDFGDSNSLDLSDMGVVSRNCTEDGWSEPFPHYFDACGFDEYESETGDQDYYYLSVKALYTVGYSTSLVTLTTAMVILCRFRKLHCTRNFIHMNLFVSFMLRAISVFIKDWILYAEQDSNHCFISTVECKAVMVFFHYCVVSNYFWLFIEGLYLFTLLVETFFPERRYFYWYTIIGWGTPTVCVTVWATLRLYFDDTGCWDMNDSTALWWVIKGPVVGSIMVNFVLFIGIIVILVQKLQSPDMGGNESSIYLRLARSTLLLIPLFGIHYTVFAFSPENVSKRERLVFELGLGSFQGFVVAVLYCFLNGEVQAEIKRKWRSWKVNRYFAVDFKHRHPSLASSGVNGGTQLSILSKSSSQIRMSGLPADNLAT

B1: iPS:327268 (bispecific antibody, human IgG1, kappa, lambda)
light 1: DIVMTQSPDSLAVSLGERATIHCKSSQSVLYSSNNKNFLTWYQQKPGQPPKLLIYRASTRESGVPDRFSGSGSGTDFTLTISSLQAEDVAVYFCQQYYSAPFTFGPGTRVDIKRTVAAPSVFIFPPSDEQLKSGTASVVCLLNNFYPREAKVQWKVDNALQSGNSQESVTEQDSKDSTYSLESTLTLSKADYEKHKVYACEVTHQGLSSPVTKSFNRGEC
heavy 1: QVQLQESGPGLVKPSQTLSLTCTVSGGSISSGGYYWSWIRQHPGKGLEWIGYIYYSGNTYYNPSLKSRVTISGDTSKNQFSLKLRSVTAADTAVYYCTRGGAARGMDVWGQGTTVTVSSASTKGPSVFPLAPSSKSTSGGTAALGCLVKDYFPEPVTVSWNSGALTSGVHTFPAVLQSSGLYSLKSVVTVPSSSLGTQTYICNVNHKPSNTKVDKKV[left out - human IgG1 Fc with changes]
light 2: QSVLTQSPSASGTPGQRVTISCSGSSSNIGSNYVYWYQQLPGAAPKLLILRNNQRPSGVPDRFSGSKSGTSASLTISGLRSEDEADYYCAAWDDSLSGWVFGGGTKLTVLGQPKANPTVTLFPPSSEELQANKATLVCLISDFYPGAVTVAWKADGSPVKAGVETTKPSKQSNNKYAAKSYLSLTPEQWKSHRSYSCQVTHEGSTVEKTVAPTECS
heavy 2: [left out - about 100 residues]DRTGYSISWSSYYYYYGMDVWGQGTTVTVSSASTKGPSVFPLAPSSKSTSGGTAALGCLVKDYFPEPVTVSWNSGALTSGVHTFPAVLQSSGLYSLESVVTVPSSSLGTQTYICNVNHKPSNTKVDKKVEPKSCDKTHTCPPCPAPELLGGPSVFLFPPKPKDTLMISRTPEVTCVVVDVSHEDPEVKFNWYVDGVEVHNAKTKPCEEQYGSTYRCVSVLTVLHQDWLNGKEYKCKVSNKALPAPIEKTISKAKGQPREPQVYTLPPSRKEMTKNQVSLTCLVKGFYPSDIAVEWESNGQPENNYKTTPPVLKSDGSFFLYSKLTVDKSRWQQGNVFSCSVMHEALHNHYTQKSLSLSPGK
B2: iPS:327276 (bispecific antibody, human IgG1, kappa, lambda, N297G)
light 1: DIQMTQSPSSLSASVGDRITITCRASQSISRYLNWYQQKPGKAPKLLIYAASSLQSGIPSRFSGSGSGTDFTLTINSLQPEDFATYFCQQSYSPPFTFGPGTKVDIKRTVAAPSVFIFPPSDEQLKSGTASVVCLLNNFYPREAKVQWKVDNALQSGNSQESVTEQDSKDSTYSLESTLTLSKADYEKHKVYACEVTHQGLSSPVTKSFNRGEC
heavy 1: QVQLQQSGPGLVKPSQTLSLTCAISGDSVSSNSATWNWIRQSPSRGLEWLGRTYYRSKWSNHYAVSVKSRITINPDTSKSQFSLQLNSVTPEDTAVYYCARGTWKQLWFLDHWGQGTLVTVSSASTKGPSVFPLAPSSKSTSGGTAALGCLVKDYFPEPVTVSWNSGALTSGVHTFPAVLQSSGLYSLKSVVTVPSSSLGTQTYICNVNHKPSNTKVDKKV[left out - human IgG1 Fc with R292C N297G V302C K370D K392D K409D (EU numbers)]
light 2: B1 light 2
heavy 2: [left out - about 100 residues]DRTGYSISWSSYYYYYGMDVWGQGTTVTVSSASTKGPSVFPLAPSSKSTSGGTAALGCLVKDYFPEPVTVSWNSGALTSGVHTFPAVLQSSGLYSLESVVTVPSSSLGTQTYICNVNHKPSNTKVDKKVEPKSCDKTHTCPPCPAPELLGGPSVFLFPPKPKDTLMISRTPEVTCVVVDVSHEDPEVKFNWYVDGVEVHNAKTKPCEEQYGSTYRCVSVLTVLHQDWLNGKEYKCKVSNKALPAPIEKTISKAKGQPREPQVYTLPPSRKKMTKNQVSLTCLVKGFYPSDIAVEWESNGQPENNYKTTPPVLKSDGSFFLYSKLTVDKSRWQQGNVFSCSVMHEALHNHYTQKSLSLSPGK

Legend:
human CGRP receptor = human CGRP receptor (human, UniProt Q16602 23-461; O60894 27-148); assay: cell-based or functional assay
Chain of human CGRP receptor (Q16602 23-461 limits assumed, chain 1 of 2): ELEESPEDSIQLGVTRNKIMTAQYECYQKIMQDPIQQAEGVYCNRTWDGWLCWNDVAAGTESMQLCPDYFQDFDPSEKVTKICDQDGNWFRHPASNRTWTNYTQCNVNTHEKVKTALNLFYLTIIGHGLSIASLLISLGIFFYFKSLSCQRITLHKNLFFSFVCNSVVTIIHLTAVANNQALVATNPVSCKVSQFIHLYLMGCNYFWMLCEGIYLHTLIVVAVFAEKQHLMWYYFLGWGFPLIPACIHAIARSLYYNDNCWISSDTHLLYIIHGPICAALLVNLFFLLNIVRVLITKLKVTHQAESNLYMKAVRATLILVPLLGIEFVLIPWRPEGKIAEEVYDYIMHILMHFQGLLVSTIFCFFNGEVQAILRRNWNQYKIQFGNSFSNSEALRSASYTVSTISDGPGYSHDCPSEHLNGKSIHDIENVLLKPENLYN
Chain of human CGRP receptor (O60894 27-148 limits assumed, chain 2 of 2, further chain): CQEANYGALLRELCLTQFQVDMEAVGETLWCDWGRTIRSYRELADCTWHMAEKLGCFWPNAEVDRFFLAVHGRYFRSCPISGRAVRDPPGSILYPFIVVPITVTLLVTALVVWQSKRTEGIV

human PAC1 receptor = target: T1, human PAC1 receptor; assay: cell-based or functional assay

% inhibition of human CGRPR (human CGRP receptor)	% inhibition of human PAC1 (human PAC1 receptor)	Binder
79%	38%	B1
80%	87%	B2

From patent US20170306033A1 (Amgen, published 2017)
